# Test results published in the supplement of paper PMC10126150.
# Values marked as one replicate rest on one cluster of the flow cell; about a third of the high ones do not repeat.
# Test system: ATP
# Assay: switch fluorescence ratio, 500 uM ATP over buffer (Cy3 cluster intensity, sum of 5 cycles each) (fold (ratio)); higher = stronger signal-on switching upon ATP binding; sequences stand for … in TCGTCGGCAGCGTCAGATGTGTATAAGAGACAGTTTTTTTTTTTTTTTTTTTTTTTTT…TC
# Conditions: aptamer strand: ATP DNA aptamer (quencher-CACCTGGGGGAGTATTGCGGAGGAAGG + anchor), 100 nM annealed; ATP concentration: 500 uM; one replicate
# Method in brief: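 Cy3-labelled switching-strand clusters on a modified Illumina MiSeq flow-cell were annealed to 100 nM quencher-labelled ATP aptamer, imaged in selection buffer, then imaged after 15 min with 500 uM ATP at 22 °C. Five buffer/ATP cycles ran, with NaOH stripping and re-annealing between them. The fluorescence ratio is summed target-cycle over summed buffer-cycle Cy3 intensity per cluster, averaged per switch-domain sequence. Clusters outside 100-1000 RFU were excluded.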
# 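Note: ATP exposure 15 min at 22 °C before imaging.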
row,Sequence,switch fluorescence ratio
1,AACTTGCTTG,0.998
2,TGATCTAAAC,1.03
3,ATCGACGGCA,1.04
4,CGGTACTTAC,1.24
5,CTCCGAGTAA,2.91
6,TCGTCTGTCT,1.02
7,ACCTGGTCAC,1.03
8,CGACTAAGGC,1.06
9,CGAGATAGAA,0.956
10,GGGGTGTGTT,1.03
11,CGTCTTAGAG,1.03
12,TTGGAGCTGT,0.927
13,TAACGTGCAT,1.02
14,CGAGTAACTC,1.02
15,GAAGATTAAT,1.02
16,CGCATCGCGA,1.08
17,TTCCACCGTT,1.19
18,TACGAAGAG,1.07
19,TTCGATAGC,0.999
20,TTGGAGAATA,0.987
21,CTATTGCTAG,0.989
22,GCATTATGGC,1.05
23,CGAACGATA,1.18

row,Sequence,switch fluorescence ratio
1,ATAAGTGACG,1.01
2,GGTTTCGTGC,1
3,GTTTTACTC,1.05
4,GGCGCACCCG,1.01
5,GCTCGCTTC,1.04
6,TGGTACGAGG,0.985
7,GTTTTGGCAG,0.952
8,GAGTGAGCGA,0.97
9,TTTATTCATG,1.02
10,AATTCGATCG,0.977
11,AGATATGCTT,0.964
12,TCCTTTGGCA,1.18
13,CCTGTTATTA,0.977
14,TAAGTCTAG,0.996
15,GACGCCTATC,1.46
16,GAGTAAAGTA,0.967
17,CCTCGGACCT,1.42
18,TAGTGTAGAA,1.04
19,TTGATTGAAT,1.01
20,GTTGTGCTGT,1.01
21,TGTGCAAGAA,0.991
22,TGCGGAATAA,1.09
23,AACAAATACG,1.55

row,Sequence,switch fluorescence ratio
1,CCTGTGTATG,1
2,CCATCTGTTT,1.03
3,CCAGGTTTT,1.07
4,TCGCGACAA,1.02
5,GCATGGGAGT,0.983
6,AGAAACGAGT,0.98
7,TCTTTTTAG,0.946
8,CAAGTTGTCT,1.06
9,CGTTTCTCCC,1.54
10,CCGATTCGGC,1.01
11,TAATTAAATC,1.01
12,TTGTTCGCCA,1.04
13,CGCTATAATT,1.14
14,GCTCTACGAG,1
15,GTAGGGCATC,0.991
16,TTAGTAAAAC,1.17
17,CGCGGGTTAC,1.34
18,TCTCAGTATC,1.08
19,TGGTCGAAC,0.996
20,AGGGTGGT,0.981
21,TGAGCAACTT,1.07
22,GGGCAAAGAA,1.02
23,ACATCCTTGG,1.03

row,Sequence,switch fluorescence ratio
1,AACTCGTATA,0.985
2,GCCCAGGATA,1
3,TACTGGGTA,1
4,CATGGTGTCG,1.06
5,GGCGGAGTTG,1.03
6,GTCACCGGCC,1.23
7,CTAAGGTCAG,0.948
8,TGGGCGGTAG,1
9,ATAAGTAGTC,0.97
10,CCGCTGTGCG,1.09
11,AACAACTTTG,0.984
12,CCGTTTGATA,1
13,TGGCAGATGT,1.1
14,TGCGTAAGGT,1
15,GAGGTTAACG,1.04
16,CGTGCACGTA,0.978
17,CCCAAATAAG,1.05
18,TATAGTAGGT,1
19,GGCTTGCATT,0.988
20,GTCTATGCGA,1.04
21,TATCTGGAAT,1.04
22,CAATCGGGGA,0.986
23,ACTTTGATCG,1

row,Sequence,switch fluorescence ratio
1,CAGTACAGT,1.01
2,GGATCGGGCC,1.01
3,TTCTTAGCAT,1.02
4,CGGCTATCCG,0.952
5,GGTGGGAATT,1.03
6,GGTTATAAGA,0.972
7,ATGTTCGGTG,0.968
8,TTACGCTTTG,0.976
9,TAACTCAT,1.04
10,AGCCCTGTGA,1.04
11,TGGAGGTGAG,0.999
12,GTTTCGGAAG,1.02
13,ATGAGAAATG,0.888
14,TCTTCTCAG,0.977
15,TTTAATGTCT,0.966
16,GCTTTGGCAA,0.982
17,AAGGTCAAGA,0.987
18,CTGATGGTCT,1.03
19,CGCGAGATGT,1.05
20,TTGTCTAATC,0.999
21,ATGCATCCGG,0.974
22,CAAGATTATG,1.02
23,CTGCATGGG,1.12

row,Sequence,switch fluorescence ratio
1,CAATTAAGCA,0.99
2,AAATCAGGGG,1.17
3,CTGGGTCTGT,0.955
4,CTCATTTTGC,0.996
5,GTCTTTCCGT,0.977
6,TACAAGTCTC,1.03
7,AATCAAAGTA,0.975
8,CAAACGAAAT,1.24
9,CAAGGGTACA,1.04
10,GGAAATTGAT,1.01
11,AGGTGGATAT,1.04
12,ATGCCCACCG,1.04
13,GATGGCGACT,0.989
14,CCTGTTGCTT,1.02
15,GGTTGATCCT,0.975
16,TTTAGCGTCT,1.03
17,GCAAAAGTGT,0.939
18,AAATGGCTGC,0.887
19,GAGGCGACAG,1.03
20,GAGGTACGGT,1.03
21,ACCATCAAGC,1.07
22,AGCAAATTGC,0.969
23,GAGCTTTACA,1.02

row,Sequence,switch fluorescence ratio
1,AATGCCATCG,1.01
2,GCCCCAAAAT,0.983
3,TACCTTGCGG,1.04
4,CCCCGGAAGT,1.49
5,TGGGTCAGCG,1.04
6,GCATCAGGTA,1
7,ACGACAATCG,0.987
8,GTATCCATGT,1.01
9,AATAAAAGCA,1.08
10,ACACGAGGAT,1.08
11,CGTACGCGAG,1.04
12,GTCCGGTGGT,0.976
13,GATTCTACCT,1.24
14,TTCGTGTGAA,0.994
15,TAGTACGCGA,1.54
16,GTGTCATCGT,0.976
17,ATATTGGTC,1.04
18,CGCACCAGCC,1.08
19,CAGACAGTTA,0.986
